# The campaign covered roughly 360,000 compounds. About 6,000 (1.7%) were called active. Inconclusive means that the source gave no clear call. Such entries were picked first, then a sample of the others. Calls follow the shape of the dose curve; as a rule, active = well fitted cell-killing curve with a large enough effect; inconclusive = small, poorly fitted or top-dose-only effect, or effect the other way; inactive = flat fitted curve, though single readings scatter. No potency is given beside an inconclusive call; the fits are too rough.
# Assay: qHTS for induction of synthetic lethality in tumor cells producing 2HG: qHTS for the HT-1080-NT fibrosarcoma cell line;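 also: NT is the 2HG producing partner of a matched IDH1 knockdown line; nearly all actives have a fitted effect of over 55% in size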;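 as to activity, negative = less viability: 0% = DMSO-treated cells and -100% = media-only wells without cells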
# Conditions: HT-1080-NT fibrosarcoma viability, CellTiter-Glo ATP luminescence, 48 h; activity, negative = less viability: at 46.1 µM (top of the series) unless noted
# Method in brief: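 Compounds were tested in concentration-response format on HT-1080-NT cells for 48 hours at 37 degrees C. Cell viability came from CellTiter-Glo luminescence; curves were classified by r2, response magnitude and activity.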
# Potency is read from the fitted curve at half-maximal effect; tags tell the direction and shape of the fitted curve.
SMILES,"activity, negative = less viability",Potency
COc1ccc(OC)c(-c2cc(C(=O)N3CCN(c4ncccn4)CC3)c3ccccc3n2)c1,inactive: -10.8%,–
Cc1ccc(NC(=O)c2ccccc2NC(=O)Cc2ccccc2)cc1,–,"inconclusive [rising, single point]"
CCOC(=O)c1ccccc1NC(=O)COC(=O)c1ccc(OCC(=O)N2CCOCC2)c(OCC)c1,inactive: 0.477%,–
CCN(CC)S(=O)(=O)c1ccc(C)c(NS(=O)(=O)c2cc(/C=C/C(=O)O)cc(OC)c2OC)c1,inactive: 17.5%,–
Cc1onc(C(=O)N2CCC(Cc3ccccc3)CC2)c1[N+](=O)[O-],–,active: 5.8 µM
CNc1ccc(/C=C2\CSc3ccccc3C2=O)cc1[N+](=O)[O-],–,"inconclusive [cytotoxic, single point]"
Cc1cc(N2CCN(C(=O)Oc3ccc([N+](=O)[O-])cc3)CC2)c2ccccc2n1,–,"inconclusive [cytotoxic, single point]"
C=C(C)c1nc(Oc2ccccc2)nc(Oc2ccccc2)n1,–,"inconclusive [cytotoxic, single point]"
Cc1cccc(N(C)S(=O)(=O)c2cccc3nsnc23)c1,inactive: -3.8%,–
CC1CCN(C(=O)c2[nH]cnc2C(=O)N[C@@H](C)C(=O)OCc2ccccc2)CC1,–,"inconclusive [cytotoxic, single point]"
CC(C)C[C@H](NC(=O)N1c2ccccc2NC(=O)[C@@H]1C(C)C)C(=O)N[C@@H](Cc1ccccc1)C(=O)O,inactive: 1.98%,–
COc1ccc(-n2nc(C(=O)NCc3ccco3)c3ccccc3c2=O)cc1,–,"inconclusive [cytotoxic, partial curve]"
CCC1(c2ccccc2)SC(=O)NC1=O (centres undefined),inactive: -1.98%,–
O=C(c1ccc2c3n(nc2c1)-c1ccccc1CO3)N1CCOCC1,–,active: 8.2 µM
CCN(CC(=O)Nc1ccccc1C(F)(F)F)C(=O)/C=C/c1ccc(Cl)c([N+](=O)[O-])c1,inactive: -0.945%,–
COc1ccccc1CNC(=O)c1nn(-c2ccc(C)cc2)c(=O)c2c1c1ccccc1n2C,–,"inconclusive [cytotoxic, single point]"
O=C(Nc1ccc2c(c1)OCO2)Nc1ccccc1F,–,"inconclusive [cytotoxic, single point]"
CC(C)OCCCNc1nc2c(cnn2C)c(=O)[nH]1,inactive: -4.84%,–
Cc1nn(-c2ccccc2)cc1/C=N/NC(=O)c1cccs1,inactive: 7.93%,–
Cc1ccc(S(=O)(=O)N2CCN(CN3C(=O)CC4(CCCC4)C3=O)CC2)cc1,inactive: -0.0682%,–
CCOC(=O)c1ccc(N2CCCCC2)c(NS(=O)(=O)c2ccc(C)cc2)c1,–,"inconclusive [cytotoxic, single point]"
COc1ccc(NC(=O)CC2C(=O)NCCN2C(=O)Nc2ccc(C(F)(F)F)cc2)cc1 (centres undefined),–,"inconclusive [cytotoxic, partial curve]"
N#CCCN(Cc1ccccc1)C(=S)NC(=O)c1ccccc1,–,active: 1.26 µM

SMILES,"activity, negative = less viability",Potency
Cc1cc2c(cc1C)C(c1cc(Br)ccc1F)CC(=O)N2 (centres undefined),–,"inconclusive [cytotoxic, single point]"
O=C1/C(=C/c2ccncc2)SC(=S)N1Cc1ccccc1,–,active: 23.1 µM
O=C(Nc1ccc2ccccc2n1)c1ccc(Cl)cc1,–,"inconclusive [cytotoxic, single point]"
O=C(CSc1nc2ccc(NC(=O)CSc3nnnn3-c3ccccc3)cc2s1)Nc1ccccc1,–,"inconclusive [cytotoxic, partial curve]"
CCOc1ccc(NC(=O)C(C)Oc2ccccc2C(=O)Nc2ccc(C)c(Cl)c2)cc1 (centres undefined),–,"inconclusive [cytotoxic, single point]"
Cc1ncccc1C(=O)N1CCCC(c2cc(C(=O)Nc3ccc(C(C)(C)C)cc3)no2)C1 (centres undefined),–,active: 20.6 µM
CCCCn1nnnc1C(c1ccc(OC)cc1)N1CCN(C/C=C/c2ccccc2)CC1 (centres undefined),–,"inconclusive [cytotoxic, single point]"
Cc1nc2nc(SCC(=O)c3cccc([N+](=O)[O-])c3)[nH]c2cc1Br,inactive: -1.9%,–
COc1cc(NC(=O)c2ccc(Br)o2)ccc1NC(=O)c1ccccc1Cl,–,"inconclusive [cytotoxic, single point]"
CCn1c(C(=O)N2CCCC(C(=O)NCCc3ccc(C)cc3)C2)cc2sccc21 (centres undefined),–,"inconclusive [cytotoxic, single point]"
COc1ccc(Cc2nc(C(=O)Nc3ccccc3)cs2)cc1,–,"inconclusive [cytotoxic, single point]"
CCC(Oc1ccccc1)C(=O)Nc1nnc(C(F)(F)F)s1 (centres undefined),–,"inconclusive [cytotoxic, single point]"
CCOCCCNC(=O)c1ccc2c(c1)N(CC)C(=O)c1ccccc1S2=O (centres undefined),inactive: -11.8%,–
COc1ccc2nc(C)cc(Nc3ccc(N4CCN(C)CC4)cc3)c2c1,–,"inconclusive [cytotoxic, single point]"
CC(C)CCn1c(-c2nonc2N)nc2ccccc21,–,"inconclusive [cytotoxic, partial curve]"
CC(C)Cc1nnc(NC(=O)Nc2ccccc2)s1,inactive: -23%,–
CC(C)S(=O)(=O)c1csc(NC(=O)Nc2ccc(Cl)cc2)c1Cl,–,"inconclusive [cytotoxic, single point]"
COc1ccc2cc(C#CC3=CC(=O)C[C@H](c4ccc(F)cc4)C3)ccc2c1,–,"inconclusive [cytotoxic, partial curve]"
Cc1ccccc1-c1nnn(C/C(N)=N/O)n1,inactive: -1.37%,–
COc1cccc(NC(=O)[C@H](CC(C)C)NC(=O)N2CCn3c2nc2ccccc23)c1,–,"inconclusive [cytotoxic, single point]"
N#C/C(=C\c1cn(CCOc2ccccc2F)c2ccccc12)C(=O)NCc1cccs1,–,"inconclusive [cytotoxic, single point]"
C/C(=N\NC(=O)c1ccc2c(c1)OCO2)c1ccc(O)cc1,–,"inconclusive [cytotoxic, partial curve]"
COc1ccccc1CN1CCC(CNS(=O)(=O)c2cc(-c3cc(C)no3)ccc2C)CC1,–,"inconclusive [cytotoxic, partial curve, poor fit]"

SMILES,"activity, negative = less viability",Potency
CCOc1ccc(C(C)NC(=S)NCc2ccc(Cl)cc2)cc1 (centres undefined),–,"inconclusive [cytotoxic, single point]"
COc1ccc(/C=C/C(=O)c2c(O)c(OC)c3occc3c2OC)cc1OC,–,active: 17.8 µM
CCOc1ccc(/C=N/NC(=O)C(=O)N2CCCCCC2)c2ccccc12,inactive: -3.4%,–
O=C(N/N=C/c1sc2ccccc2c1O)c1ccccc1,–,active: 8.2 µM
O=C(CSc1nnc(-c2ccccc2F)o1)OCc1ccccc1,–,"inconclusive [cytotoxic, full curve, poor fit]"
CC(C)CC1C(=O)N(Cc2cn(CCC3OCCO3)nn2)CCS(=O)(=O)N1Cc1ccc(-c2cccc(CO)c2)cc1 (centres undefined),inactive: 11.5%,–
COc1ccc(CCCNC(=O)C2Cc3c(-c4cccc(NC(C)=O)c4)ccnc3O2)cc1 (centres undefined),–,"inconclusive [cytotoxic, full curve]"
O=C(NCc1cccc(C(F)(F)F)c1)C1CC(c2ccccc2F)=NO1 (centres undefined),–,"inconclusive [cytotoxic, single point]"
CCOc1ccc2c(c1)nc(SCC(=O)c1ccc(Br)s1)n2C,–,"inconclusive [cytotoxic, single point]"
CCN(CC)C(=O)C(Sc1ccccc1)c1ccccc1 (centres undefined),inactive: 3.01%,–
Brc1ccccc1-c1nnc(COc2ncnc3c2cnn3-c2ccccc2)o1,–,"inconclusive [cytotoxic, partial curve, poor fit]"
COc1ccc(-c2cc(C)no2)cc1S(=O)(=O)Nc1ccc(NC(C)=O)cc1,–,"inconclusive [cytotoxic, single point]"
CC(=O)c1cccc(-c2ccnc3c2CC(C(=O)NCc2ccco2)O3)c1 (centres undefined),–,"inconclusive [cytotoxic, full curve]"
O=C(Nc1cccnc1)OC1CCCCC1,inactive: 3.69%,–
CC(C)c1ccc(C(O)P(=O)(OC2CCCCC2)OC2CCCCC2)cc1 (centres undefined),–,"inconclusive [cytotoxic, single point]"
COc1ccc(CC(=O)Nc2nc(-c3ccc(F)c(F)c3)cs2)cc1OC,–,"inconclusive [cytotoxic, full curve]"
Oc1cccc(Nc2nc(-c3ccccc3)nc3ccccc23)c1,–,"inconclusive [cytotoxic, single point]"
COc1cc(/C=C/c2nnc3c4ccccc4ncn23)cc(OC)c1OC,–,"inconclusive [cytotoxic, partial curve]"
COc1ccc(C2NC(C(=O)O)Cc3c2[nH]c2ccccc32)cc1CN1CCN(c2ccc(F)cc2)CC1 (centres undefined),inactive: -4.77%,–
COc1ccc(C)cc1S(=O)(=O)N(CC(=O)NCc1ccc(Cl)cc1)Cc1ccccc1,–,"inconclusive [cytotoxic, single point]"
COc1ccc(C2=Nc3ccccc3N(C(=O)c3ccc4ncccc4c3)C2C(=O)NC2CCCC2)cc1 (centres undefined),–,"inconclusive [cytotoxic, single point]"
CC1(C)Cc2c(c(N3CCOCC3)nc3sc4c(NN)ncnc4c23)CS1,–,"inconclusive [cytotoxic, single point]"
CC(=O)c1ccc(-c2ccc([C@H]3[C@H]4C=CC[C@@H](C)[C@@H]4C(=O)N3Cc3ccccc3)c(F)c2)cc1,–,"inconclusive [cytotoxic, single point]"
